Laboratory results as given in the RNAGym collection of RNA variant scans (doi:10.7554/elife.90254).
The source gives no read counts; variants with many changes may rest on few reads.

B1: OR4K15 (parent)
chain: GUUAACGGUCAUAGGCCAUGGAAACUAGGAGCACCAUUUCGCUGCCAGUGAAGAAAUGAACAAAGAAAAUCUGGGCCAGGCAGGCAUCAAAAGAAAUAGUCUUGCGCUCAACCAGAAAGUCUGUAAUCAUUUUAAGGGUA

Variants of: B1
Assay: self-cleavage, relative activity (ratio to wild type); higher = more cleavage; in vitro, sequencing; the parent is a self-cleaving ribozyme
Variant G31C A90G A110U has a self-cleavage of 1.05. A33G G41U A86G A91G A95G U108C showed a self-cleavage of 0.01. Variant A30G U39C A91G A111G has a self-cleavage of 0.04. For A30C A66G U127G, the self-cleavage was 2. With A33G A63G A90U the self-cleavage was 1.06. For A30G U120C U122C, the self-cleavage was 0.52. In the case of A30G U70C C88A, the self-cleavage is reported as 0.64. With A30G A55G U102A U108C U122G the self-cleavage was 0. In the case of A33G A91G A110G, the self-cleavage is reported as 0.11. For A33G A66G A68C U87C A118G, the self-cleavage was 0.71. A30U U70C A86U A140U showed a self-cleavage of 0.99. In the case of C32U A55G G58A A86G A129G, the self-cleavage is reported as 0.48. C32U A62G U120C gave a self-cleavage of 0.72. Variant G31A A63U A78U U131A has a self-cleavage of 0.23. Work on A30U U57C A60G C128A yielded a self-cleavage of 0.5. For A33G A67G U72C U100A, the self-cleavage was 0.07. In the case of A33C U38C A68G A117C, the self-cleavage is reported as 0.39. With A30G A66G A82U the self-cleavage was 0.3. For A30U A96G U122A, the self-cleavage was 1.9. Variant C32U U39C U70A A86G has a self-cleavage of 1.5. With A33C U39A U49C A55G A67G A89G A116G the self-cleavage was 0.89. Work on A30U A54G U102C C109U U133C yielded a self-cleavage of 0.61. In the case of C32U A62G A66G G104U A118G, the self-cleavage is reported as 0. For A30G U108A A114G, the self-cleavage was 0.02. In the case of A30G U37C U38C A82G, the self-cleavage is reported as 0.42. Variant C32U U37G A116U has a self-cleavage of 0.56. In the case of A33G A52U U102A U120C, the self-cleavage is reported as 0.1. A30G A60G U120C U122C gave a self-cleavage of 1.22. With A30G A62G A64G U100C the self-cleavage was 1.31. A30G A94C U122C showed a self-cleavage of 1.27. For A30G U37C A51U C113G, the self-cleavage was 0.02. A33G A52G A59G C85U C105A U108C gave a self-cleavage of 0.04. Variant C32U A36G U72C has a self-cleavage of 0.29. A30G A116G U133A gave a self-cleavage of 0.67. A30G A89G U120C showed a self-cleavage of 0.53. For A30G A64U U100C, the self-cleavage was 1.39. A30G A64G A67G A92G showed a self-cleavage of 1.5. A30U A60G U108C gave a self-cleavage of 0.03. A30G U39C A60G A90G gave a self-cleavage of 0.4. Variant A33G A69G A86U U130C has a self-cleavage of 0.34. With A30G A56G A82G the self-cleavage was 0.71. Work on C32A U57G A94G yielded a self-cleavage of 1.4. For A30G A94G C105U U122C U127A G137A, the self-cleavage was 0.24. Work on A30U A63G A68G A95U G137U yielded a self-cleavage of 1.25. For A30G A62U A91G, the self-cleavage was 0.86. Variant A30U A67U A90G A91U G99A A118G has a self-cleavage of 0.49. A30C G50A A69U gave a self-cleavage of 0.94. Variant A30C A89U A116G has a self-cleavage of 0.21. Variant A30U A36U U102A has a self-cleavage of 0.75. A30G A95G U122C showed a self-cleavage of 1.49. A33G A82G A94G U120C showed a self-cleavage of 0.09. A30G A68G A89G A116U showed a self-cleavage of 0.42. In the case of A30G U70C U108C, the self-cleavage is reported as 0.09. With G31U A67G A110G A117G the self-cleavage was 0.21. For A33G A55G A63G A67G, the self-cleavage was 1.12. For A30G C40A A66U A68G C76U A82G U130C U139C, the self-cleavage was 0.06. A33G A94G U132A showed a self-cleavage of 0.47. In the case of A30G U122A U132C, the self-cleavage is reported as 0.98. A30G A33G U38C gave a self-cleavage of 0.98. For A30G A55G A98G A140G, the self-cleavage was 0.31. In the case of A30G U108C A111G A134G, the self-cleavage is reported as 0.01. Variant A30G U57C A78U U122C has a self-cleavage of 0.14. In the case of A30G U38C A55G G119U U139C, the self-cleavage is reported as 2.04. Work on A30G A59U U87C U108C A111G U139A yielded a self-cleavage of 0.02. In the case of A33G A56G U57G A69G U72C, the self-cleavage is reported as 0.21. With A30G U38C A94G U108C the self-cleavage was 0.02. Work on A30G A62U A68G yielded a self-cleavage of 0.79. Work on A30G U87C U133A yielded a self-cleavage of 0.51. Variant A30U U37C C77U A94G U103C has a self-cleavage of 1.78. A30G A94G U120C gave a self-cleavage of 1.04. G31U A54G A68G U100C showed a self-cleavage of 2.53. A30G A33U A68G G106A A117G gave a self-cleavage of 0. A30U U49A A52G A94G showed a self-cleavage of 1.86. With A30G A51U A63G A82G the self-cleavage was 0.23. In the case of A30U A54U A96G, the self-cleavage is reported as 2.15. G31A U39C A96G A118G showed a self-cleavage of 1.37. A30U U108C U122C gave a self-cleavage of 0. A30G U39A A82U U103C gave a self-cleavage of 0.09. In the case of A30U A47G A110G A116G U132C A135G, the self-cleavage is reported as 0.04. Variant A33G A62G U87C G119A has a self-cleavage of 0.44. A30G A51G A69G U87C U122C A135G showed a self-cleavage of 0.44. A30G G53A C76G showed a self-cleavage of 0.31. A30G A56G A60C A69G gave a self-cleavage of 1.43. With A30G A67G A86G U100C U131C the self-cleavage was 1.34. A30G U38A A135U showed a self-cleavage of 1.49. With A30G U39C U131A the self-cleavage was 0.93. In the case of A30G A33G U72A U127G A135U, the self-cleavage is reported as 0.14. Variant A30G A117G A129G has a self-cleavage of 1.14. A30G A52G U100C A125U showed a self-cleavage of 1.69. G31C U124C U132C gave a self-cleavage of 1.34. For A33G A51G A68G, the self-cleavage was 0.81. A30G U43A A117G gave a self-cleavage of 1.17. Variant A30G A66G A86G U120A has a self-cleavage of 1.49. A30G U38A U102C gave a self-cleavage of 1.76. Work on A30G A68U A95G yielded a self-cleavage of 0.52. Work on A30G U39C A78U yielded a self-cleavage of 0.37. Variant C32U U37C A51G U127C has a self-cleavage of 1.83. A33C A78U A96U A117G showed a self-cleavage of 0.39. In the case of G29A U72C A96G, the self-cleavage is reported as 0.33. A30G U49C A69G U70C U131C gave a self-cleavage of 0.26. Variant G31C U37C A60G A98U U124C has a self-cleavage of 1.79. In the case of A30G A33G A67G U120A U131C, the self-cleavage is reported as 0.97. Work on A30G U37C A47G U72A A118U yielded a self-cleavage of 0.05. For A30G A33G U70C, the self-cleavage was 0.44. In the case of A33G A55G U57C A95G A96G, the self-cleavage is reported as 0.97. A30G A51G A55U A118G A126U U127C gave a self-cleavage of 0.17. For A30G A52G A118G U132C, the self-cleavage was 1.12. In the case of A33G A64U A86G, the self-cleavage is reported as 1.37. Work on A33C A67G A86G U133A yielded a self-cleavage of 2.21. With C32U A60G A118G the self-cleavage was 0.41. Work on A30G U37C U38C yielded a self-cleavage of 1.2. Work on C32A A64G U130C yielded a self-cleavage of 0.6. In the case of A30G U43C A60G C77U A92G C107U U139C, the self-cleavage is reported as 0.02. In the case of A33C U43C A51G A129U, the self-cleavage is reported as 1.37. With C32U A63U A140U the self-cleavage was 1.15. A33G A92G A96U U97C A110U showed a self-cleavage of 0.58. With A30G U102A A134G the self-cleavage was 0.05. With A33G A63G A89G U103C A114G A125G the self-cleavage was 0.03. Variant A30G A47G A86U has a self-cleavage of 1.5. For A30G A117G U124C, the self-cleavage was 1.25. In the case of A30U A67G A86G, the self-cleavage is reported as 1.14. With A30U A95G U97A the self-cleavage was 0.77. Variant A33G G41U U130C has a self-cleavage of 0.41. For A30U A68U A96G, the self-cleavage was 1.1. In the case of A33G A62G A86G A114G A125G, the self-cleavage is reported as 0.02. With A30G G31C U37A G58A A62G A82G U124G the self-cleavage was 0.12. For A30G C40A A62U A69G U100C A116U, the self-cleavage was 0.26. With A30G U132C U139C the self-cleavage was 1.73. Work on A30G A89G A98G yielded a self-cleavage of 0.84. Work on A30C U72C A117U G119A U127A yielded a self-cleavage of 0.32. A33G A55G U72C A135G showed a self-cleavage of 0.09. In the case of A30G A94G C107G, the self-cleavage is reported as 0.04. C32U A62G A67G showed a self-cleavage of 1.26. For A30U A68G A92G, the self-cleavage was 0.66. For A33G A52U A56G C105U A116U U122C, the self-cleavage was 0.01. A30G A52G A114U showed a self-cleavage of 0.03. A33G A78G A98G U108C showed a self-cleavage of 0.03. A30G A52C U103C A117G gave a self-cleavage of 1.2. A30G A116G U130C showed a self-cleavage of 0.13. With A33G A60G U72A G115A U132A the self-cleavage was 0.01. With A30G A33U A92G U120A the self-cleavage was 1.3. Variant A30G A33U A69G A96G U108C has a self-cleavage of 0.03. Variant A30G U43A A56G A60U A67G A96G has a self-cleavage of 1.44. With G31U U38C A125G the self-cleavage was 1.08. For A30U A51G A98G, the self-cleavage was 0.56. In the case of A30G A54G A59G C113U, the self-cleavage is reported as 0.09. Work on A30G A111G U132A yielded a self-cleavage of 0. A30G A56G G93U A140G showed a self-cleavage of 1.67. Variant A30G A51G A126U has a self-cleavage of 0.98. G31A G104A A110U showed a self-cleavage of 0.01. For A30G U43C A59G, the self-cleavage was 1.39. For A30U C46A A60G A66G A67G, the self-cleavage was 0.73. In the case of C32U U37C U38C U102A U131C, the self-cleavage is reported as 0.32. G29U A59G U100C U102A gave a self-cleavage of 2.48. A30G G93U A126G gave a self-cleavage of 0.84. With A30G A78U A94U the self-cleavage was 0.31. For A30G A54G U100C A111G, the self-cleavage was 0.02. In the case of A30G U38A A89G, the self-cleavage is reported as 1.42. With A33G C112U U133C the self-cleavage was 0.02. Work on A30G U70C A95G U122A yielded a self-cleavage of 0.72. A30U A82G U102C gave a self-cleavage of 0.95. With A30G A56G A94G U132A the self-cleavage was 2.25. G31A U57A A82G C113A showed a self-cleavage of 0.01. With A33G A55G A116G the self-cleavage was 0.53. In the case of G31A U38C A64G, the self-cleavage is reported as 2.3. A33G A55G A64G showed a self-cleavage of 1.07. In the case of A33G A56G A59G A60G U102A U120C, the self-cleavage is reported as 0.22.
